Measurements from the supplement of paper PMC8728848.
This is one part of the list.

Assays:
Assay in all cases: glycan array binding signal (z-score within array); higher = stronger binding
Details in all cases: glycan notation: IUPAC condensed, linker removed
Fuc(a1-2)Gal = target: Fuc(a1-2)Gal
In short: (§1)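 Glycan array binding is given as a within-array Z-score, which can be read as non-binding when negative. The arrays, 3228 of them, came from the Consortium for Functional Glycomics database and were retained only where the protein sequence was available. Z-scores were averaged across arrays of the same protein sequence at different concentrations or buffers and across linkers.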

Fuc(a1-2)Gal(b1-3)GalNAc = target: Fuc(a1-2)Gal(b1-3)GalNAc
In short: as §1

[1] = target: Fuc(a1-2)Gal(b1-3)GalNAc(b1-3)Gal
In short: as §1

[2] = target: Fuc(a1-2)Gal(b1-3)GalNAc(b1-3)Gal(a1-4)Gal(b1-4)Glc
In short: as §1

[3] = target: Fuc(a1-2)Gal(b1-3)GalNAc(b1-3)Gal(b1-4)Glc
In short: as §1

[4] = target: Fuc(a1-2)Gal(b1-3)GalNAc(b1-4)[Neu5Ac(a2-3)]Gal(b1-4)Glc
In short: as §1

[5] = target: Fuc(a1-2)Gal(b1-3)[Fuc(a1-4)]GlcNAc
In short: as §1

Fuc(a1-2)Gal(b1-4)Glc = target: Fuc(a1-2)Gal(b1-4)Glc
In short: as §1

Fuc(a1-2)Gal(b1-4)GlcNAc = target: Fuc(a1-2)Gal(b1-4)GlcNAc
In short: as §1

[6] = target: Fuc(a1-2)Gal(b1-4)GlcNAc(b1-3)Gal(b1-4)GlcNAc
In short: as §1

[7] = target: Fuc(a1-2)Gal(b1-4)GlcNAc(b1-3)Gal(b1-4)GlcNAc(b1-3)Gal(b1-4)GlcNAc
In short: as §1

[8] = target: Fuc(a1-2)Gal(b1-4)[Fuc(a1-3)]GalNAc(b1-3)Gal(b1-4)[Fuc(a1-3)]GlcNAc
In short: as §1

[9] = target: Fuc(a1-2)Gal(b1-4)[Fuc(a1-3)]GalNAc(b1-3)Gal(b1-4)[Fuc(a1-3)]GlcNAc(b1-3)Gal(b1-4)[Fuc(a1-3)]GalNAc
In short: as §1

[10] = target: Fuc(a1-2)Gal(b1-4)[Fuc(a1-3)]GlcNAc
In short: as §1

Fuc(a1-2)GlcNAc = target: Fuc(a1-2)GlcNAc
In short: as §1

Fuc(a1-2)[Gal(a1-3)]Gal = target: Fuc(a1-2)[Gal(a1-3)]Gal
In short: as §1

[11] = target: Fuc(a1-2)[Gal(a1-3)]Gal(b1-3)GlcNAc
In short: as §1

[12] = target: Fuc(a1-2)[Gal(a1-3)]Gal(b1-4)Glc
In short: as §1

[13] = target: Fuc(a1-2)[Gal(a1-3)]Gal(b1-4)GlcNAc
In short: as §1

[14] = target: Fuc(a1-2)[Gal(a1-3)]Gal(b1-4)[Fuc(a1-3)]GlcNAc
In short: as §1

[15] = target: Fuc(a1-2)[Gal(a1-4)]Gal(b1-4)GalNAc
In short: as §1

[16] = target: Fuc(a1-2)[GalNAc(a1-3)]Gal
In short: as §1

[17] = target: Fuc(a1-2)[GalNAc(a1-3)]Gal(b1-3)GlcNAc
In short: as §1

[18] = target: Fuc(a1-2)[GalNAc(a1-3)]Gal(b1-4)Glc
In short: as §1

[19] = target: Fuc(a1-2)[GalNAc(a1-3)]Gal(b1-4)GlcNAc
In short: as §1

[20] = target: Fuc(a1-2)[GalNAc(a1-3)]Gal(b1-4)[Fuc(a1-3)]GlcNAc
In short: as §1

[21] = target: Fuc(a1-2)[GalNAc(a1-4)]Gal(b1-4)GlcNAc
In short: as §1

Fuc(a1-3)GlcNAc = target: Fuc(a1-3)GlcNAc
In short: as §1

[22] = target: Fuc(a1-3)[Gal(b1-4)]GlcNAc
In short: as §1

[23] = target: Fuc(a1-3)[Gal(b1-4)]GlcNAc(b1-4)Gal(b1-4)[Fuc(a1-3)]GlcNAc
In short: as §1

[24] = target: Fuc(a1-3)[Gal(b1-4)]GlcNAc(b1-4)Gal(b1-4)[Fuc(a1-3)]GlcNAc(b1-4)Gal(b1-4)[Fuc(a1-3)]GlcNAc
In short: as §1

[25] = target: Fuc(a1-3)[Gal3S(b1-4)]GlcNAc
In short: as §1

[26] = target: Fuc(a1-3)[GalNAc(b1-4)]Gal(b1-4)GlcNAc
In short: as §1

Fuc(a1-4)GlcNAc = target: Fuc(a1-4)GlcNAc
In short: as §1

Fuc(b1-3)GlcNAc = target: Fuc(b1-3)GlcNAc
In short: as §1

Gal(a1-2)Gal = target: Gal(a1-2)Gal
In short: as §1

Gal(a1-3)Gal = target: Gal(a1-3)Gal
In short: as §1

Gal(a1-3)Gal(b1-3)Glc = target: Gal(a1-3)Gal(b1-3)Glc
In short: as §1

Gal(a1-3)Gal(b1-3)GlcNAc = target: Gal(a1-3)Gal(b1-3)GlcNAc
In short: as §1

Gal(a1-3)Gal(b1-4)GlcNAc = target: Gal(a1-3)Gal(b1-4)GlcNAc
In short: as §1

[27] = target: Gal(a1-3)Gal(b1-4)[Fuc(a1-3)]GalNAc
In short: as §1

Gal(a1-3)GlcNAc = target: Gal(a1-3)GlcNAc
In short: as §1

[28] = target: Gal(a1-3)[Gal(a1-4)]Gal(b1-4)GlcNAc
In short: as §1

Gal(a1-4)Gal(b1-4)Gal = target: Gal(a1-4)Gal(b1-4)Gal
In short: as §1

Gal(a1-4)Gal(b1-4)GalNAc = target: Gal(a1-4)Gal(b1-4)GalNAc
In short: as §1

Gal(a1-4)GlcNAc = target: Gal(a1-4)GlcNAc
In short: as §1

Gal(a1-6)Glc = target: Gal(a1-6)Glc
In short: as §1

Gal(b1-2)Gal = target: Gal(b1-2)Gal
In short: as §1

Gal(b1-3)Gal = target: Gal(b1-3)Gal
In short: as §1

Gal(b1-3)GalNAc = target: Gal(b1-3)GalNAc
In short: as §1

[29] = target: Gal(b1-3)GalNAc(b1-3)Gal(a1-4)Gal(b1-4)Glc
In short: as §1

[30] = target: Gal(b1-3)GalNAc(b1-3)Gal(b1-4)Glc
In short: as §1

[31] = target: Gal(b1-3)GalNAc(b1-3)Gal(b1-4)GlcNAc
In short: as §1

[32] = target: Gal(b1-3)GalNAc(b1-4)Gal(b1-4)Glc
In short: as §1

[33] = target: Gal(b1-3)GalNAc(b1-4)[Neu5Ac(a2-3)]Gal(b1-4)Glc
In short: as §1

[34] = target: Gal(b1-3)[Fuc(a1-4)]GlcNAc
In short: as §1

[35] = target: Gal(b1-3)[Fuc(a1-4)]GlcNAc(b1-3)Gal(b1-4)GlcNAc
In short: as §1

[36] = target: Gal(b1-3)[Fuc(a1-4)]GlcNAc(b1-3)Gal(b1-4)[Fuc(a1-3)]GlcNAc
In short: as §1

[37] = target: Gal(b1-3)[GlcNAc(b1-6)]GalNAc
In short: as §1

[38] = target: Gal(b1-3)[GlcNAc(b1-6)]GlcNAc
In short: as §1

B1: EcCDA (Encephalitazoon cuniculi), Q8SU65 (protein)
chain: MLLCLLYFTSSWCSGSDVPDVCTNSGMIAINFVDGPVRGVTDRILNTLDELGVKATFSFTVNQKAVGNVGQLYRRAVEEGHNVALRVDPSMDEGYQCLSQDALENNVDREIDTIDGLSGTEIRYAAVPICNGQVNSEMYNILTERGVLPVGYTFCPYDYDDPVGEFESMIEGSDPKHHSFIILMHDGQEADTSRLENMVKIGKDKGYRFVNMDECLQGYKGAPGDPELSLRGKGVESIGKGFLPFFLMMLVRLL
In the case of B1, the “glycan array binding signal (z-score)” value (Fuc(a1-2)Gal) is reported as -0.081, the “glycan array binding signal (z-score)” value (Fuc(a1-2)Gal(b1-3)GalNAc) is reported as -0.199 and the “glycan array binding signal (z-score)” value [1] is reported as -0.254. For the same binder, the “glycan array binding signal (z-score)” value [2] was -0.294, the “glycan array binding signal (z-score)” value [3] was -0.394 and the “glycan array binding signal (z-score)” value [4] was -0.282. The “glycan array binding signal (z-score)” value [5] was -0.367, the “glycan array binding signal (z-score)” value (Fuc(a1-2)Gal(b1-4)Glc) was -0.343 and the “glycan array binding signal (z-score)” value (Fuc(a1-2)Gal(b1-4)GlcNAc) was -0.242. The “glycan array binding signal (z-score)” value [6] was -0.358, the “glycan array binding signal (z-score)” value [7] was -0.32 and the “glycan array binding signal (z-score)” value [8] was 1.72. The “glycan array binding signal (z-score)” value [9] was -0.185, the “glycan array binding signal (z-score)” value [10] was 1.36 and the “glycan array binding signal (z-score)” value (Fuc(a1-2)GlcNAc) was 0.694. For the same binder, the “glycan array binding signal (z-score)” value (Fuc(a1-2)[Gal(a1-3)]Gal) was -0.206, the “glycan array binding signal (z-score)” value [11] was -0.284 and the “glycan array binding signal (z-score)” value [12] was 2.96. For the same binder, the “glycan array binding signal (z-score)” value [13] was -0.119, the “glycan array binding signal (z-score)” value [14] was -0.284 and the “glycan array binding signal (z-score)” value [15] was -0.277. The “glycan array binding signal (z-score)” value [16] was -0.271, the “glycan array binding signal (z-score)” value [17] was -0.096 and the “glycan array binding signal (z-score)” value [18] was 0.117. The “glycan array binding signal (z-score)” value [19] was -0.335, the “glycan array binding signal (z-score)” value [20] was -0.101 and the “glycan array binding signal (z-score)” value [21] was 0.178. For the same binder, the “glycan array binding signal (z-score)” value (Fuc(a1-3)GlcNAc) was -0.207, the “glycan array binding signal (z-score)” value [22] was -0.055 and the “glycan array binding signal (z-score)” value [23] was 0.636. For the same binder, the “glycan array binding signal (z-score)” value [24] was -0.377, the “glycan array binding signal (z-score)” value [25] was -0.367 and the “glycan array binding signal (z-score)” value [26] was -0.214. For the same binder, the “glycan array binding signal (z-score)” value (Fuc(a1-4)GlcNAc) was 0.247, the “glycan array binding signal (z-score)” value (Fuc(b1-3)GlcNAc) was 0.209 and the “glycan array binding signal (z-score)” value (Gal(a1-2)Gal) was -0.12. For the same binder, the “glycan array binding signal (z-score)” value (Gal(a1-3)Gal) was -0.277, the “glycan array binding signal (z-score)” value (Gal(a1-3)Gal(b1-3)Glc) was -0.153 and the “glycan array binding signal (z-score)” value (Gal(a1-3)Gal(b1-3)GlcNAc) was 1.21. For the same binder, the “glycan array binding signal (z-score)” value (Gal(a1-3)Gal(b1-4)GlcNAc) was -0.232, the “glycan array binding signal (z-score)” value [27] was -0.284 and the “glycan array binding signal (z-score)” value (Gal(a1-3)GlcNAc) was -0.228. For the same binder, the “glycan array binding signal (z-score)” value [28] was -0.139, the “glycan array binding signal (z-score)” value (Gal(a1-4)Gal(b1-4)Gal) was 2.76 and the “glycan array binding signal (z-score)” value (Gal(a1-4)Gal(b1-4)GalNAc) was 1.35. The “glycan array binding signal (z-score)” value (Gal(a1-4)GlcNAc) was 0.111, the “glycan array binding signal (z-score)” value (Gal(a1-6)Glc) was 3.02 and the “glycan array binding signal (z-score)” value (Gal(b1-2)Gal) was -0.328. The “glycan array binding signal (z-score)” value (Gal(b1-3)Gal) was -0.337, the “glycan array binding signal (z-score)” value (Gal(b1-3)GalNAc) was -0.287 and the “glycan array binding signal (z-score)” value [29] was -0.316. The “glycan array binding signal (z-score)” value [30] was -0.397, the “glycan array binding signal (z-score)” value [31] was -0.363 and the “glycan array binding signal (z-score)” value [32] was 0.809. For the same binder, the “glycan array binding signal (z-score)” value [33] was -0.234, the “glycan array binding signal (z-score)” value [34] was -0.277 and the “glycan array binding signal (z-score)” value [35] was -0.216. The “glycan array binding signal (z-score)” value [36] was -0.388, the “glycan array binding signal (z-score)” value [37] was -0.324 and the “glycan array binding signal (z-score)” value [38] was -0.413.
